Hit rate of the full screen: of about 74,000 compounds, about 1,100 (1.5%) were called active. Inconclusive means that the source gave no clear call. Such entries were picked first, then a sample of the others. Calls follow the shape of the dose curve; as a rule, active = well fitted inhibition curve with a large enough effect; inconclusive = small, poorly fitted or top-dose-only effect; inactive = no such curve, though single readings can be large or run the other way. Potencies of inconclusive entries are left out as doubtful fits.
Target: Polyunsaturated fatty acid lipoxygenase ALOX15 (Homo sapiens) (UniProt P16050)
Chain of UniProt P16050 (P16050 whole entry, looked up): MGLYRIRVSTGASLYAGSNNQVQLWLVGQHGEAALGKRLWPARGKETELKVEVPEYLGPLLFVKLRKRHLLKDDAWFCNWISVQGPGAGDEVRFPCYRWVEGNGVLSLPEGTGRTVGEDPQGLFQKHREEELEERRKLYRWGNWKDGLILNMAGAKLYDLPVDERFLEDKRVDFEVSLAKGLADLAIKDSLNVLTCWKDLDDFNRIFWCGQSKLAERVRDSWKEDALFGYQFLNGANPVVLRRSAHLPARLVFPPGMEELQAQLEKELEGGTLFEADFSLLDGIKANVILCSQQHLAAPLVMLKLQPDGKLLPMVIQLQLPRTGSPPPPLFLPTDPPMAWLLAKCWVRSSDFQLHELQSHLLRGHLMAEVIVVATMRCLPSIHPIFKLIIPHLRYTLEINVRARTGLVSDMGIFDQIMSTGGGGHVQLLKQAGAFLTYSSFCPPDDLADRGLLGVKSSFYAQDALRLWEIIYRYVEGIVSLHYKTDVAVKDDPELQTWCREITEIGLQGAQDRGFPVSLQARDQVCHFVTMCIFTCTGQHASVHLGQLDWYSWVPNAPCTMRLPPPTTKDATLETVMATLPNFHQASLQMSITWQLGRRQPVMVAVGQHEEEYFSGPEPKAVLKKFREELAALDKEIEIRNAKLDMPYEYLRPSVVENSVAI
Assay: qHTS Assay for Inhibitors of 15-hLO (15-human lipoxygenase); also: nearly all actives have a fitted effect of over 55% in size
Conditions: purified 15hLO-1, xylenol orange hydroperoxide absorbance; activity change, negative = inhibition: at 57.1 µM (top of the series) unless noted
Outline: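 Hydroperoxide formed from arachidonic acid (50 uM) by purified human 15hLO-1 (40 nM) oxidizes ferrous iron, and the ferric-xylenol orange complex is read at 573 versus 405 nm. Compounds were preincubated 15 min; reaction ran 6 min at room temperature.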
% is scaled to controls: 0 for no effect and ±100 for the full control effect; potency is read from the fitted curve at half-maximal effect; tags tell the direction and shape of the fitted curve.

Structure (SMILES)	Potency	activity change, negative = inhibition
CCCc1cc(-c2n[nH]c(C)c2-c2ccc(C(=O)OCC)o2)c(O)cc1O	inconclusive [inhibitor, partial curve]	–
O=S(=O)(C[C@H](O)C(Cl)(Cl)Cl)NNc1ccccc1	–	inactive: -4.27% [at 11.4 µM]
NC(CCC(=O)N[C@@H](CS)C(=O)NCC(=O)O)C(=O)O (some centres undefined)	inconclusive [inhibitor, single point]	–
c1cncc(CNc2ncncc2-c2ccoc2)c1	inconclusive [inhibitor, partial curve]	–
Nc1c(C(=O)NCc2cccnc2)sc(=S)n1-c1ccccc1	inconclusive [inhibitor, partial curve]	–
CN(C)c1ncc(C(=O)O)cn1	inconclusive [inhibitor, single point]	–
COc1cc(OC)c(C2CC(=O)N3CN(c4ccc(C)cc4)CSC3=C2C#N)cc1OC (centres undefined)	inconclusive [inhibitor, full curve]	–
CC1(C)CC(=O)c2c(nc3ccccc3c2N)C1	inactive	–
O=C(c1ccco1)N1CCN(c2ccc(Cl)c(Cl)c2)CC1	inconclusive [inhibitor, single point]	–
N#Cc1ccc(CN2CC3(CCN(C(=O)c4cccc(F)c4)CC3)C2)cc1	inactive	–
CO[C@H]1/C=C/O[C@@]2(C)Oc3c(C)c(O)c4c(O)c(c5c(c4c3C2=O)NC2(CCN(CC(C)C)CC2)N=5)=NC(=O)/C(C)=C\C=C\[C@H](C)[C@H](O)[C@@H](C)[C@@H](O)[C@@H](C)[C@H](OC(C)=O)[C@@H]1C	inconclusive [inhibitor, single point]	–
CC(C)(CN)CN	–	inactive: 5.01% [at 11.4 µM]
Cc1cnc(C(=O)Nc2cccc3cccnc23)cn1	inactive	–
Cc1cc(O)c(C(C)C)cc1N=Cc1ccccc1O	inconclusive [inhibitor, single point]	–
CCOC(=O)Nc1ccc2c(c1)N(C(=O)OC)c1ccccc1CC2	inactive	–
CCCc1nnc2n1N=C(c1ccc(-c3cc(Cl)ccc3Cl)o1)CS2	inconclusive [inhibitor, partial curve]	–
CN1CCc2c(sc(NC(=O)c3ccc(S(=O)(=O)N4CCOCC4)cc3)c2C(N)=O)C1	inconclusive [inhibitor, single point]	–
COCCn1c(=O)c(-c2ccc(Cl)cc2)nc2cncnc21	inconclusive [inhibitor, single point]	–
N#C/C(=C\c1ccc(O)c(O)c1)C(=O)OCCc1cccs1	inconclusive [inhibitor, full curve]	–
CC(C)(C)NC(=O)Cn1nnc(-c2cccs2)n1	inconclusive [inhibitor, partial curve]	–
N#CC1=C(N)Oc2cc3c(cc2C1c1ccc(Cl)cc1)OCO3 (centres undefined)	inconclusive [inhibitor, single point]	–
CN(C)c1ccc(-c2cncnc2Nc2ccc(F)cc2)cc1	active: 2.51 µM	–

Structure (SMILES)	Potency	activity change, negative = inhibition
CCN(CC)CCCNC(=O)C1c2ccccc2Oc2ccccc21	inconclusive [inhibitor, partial curve]	–
Cc1cc(OC(=O)c2ccccc2)n(CCC#N)n1	inconclusive [inhibitor, single point]	–
Oc1ccc2cc(SSc3ccc4cc(O)ccc4c3)ccc2c1	inconclusive [inhibitor, full curve]	–
CCn1c(=O)n(CC(=O)NC2CCCC(C)C2C)c(=O)c2ccccc21 (centres undefined)	inactive	–
Cc1ccc(-c2cn3c(n2)CCCC3)cc1	inactive	–
COc1cc(-c2cc(C(=O)N3CCN(c4ccccn4)CC3)c3ccccc3n2)cc(OC)c1OC	inconclusive [inhibitor, single point]	–
COc1ccccc1-c1nc(NCc2cccnc2)c2ccccc2n1	inconclusive [inhibitor, partial curve]	–
COC(=O)c1ccc(C(NC(=O)OCc2ccccc2)/C(=C/[C@@H](C)C(=O)NC2CCCCC2)c2cccnc2)cc1 (some centres undefined)	inactive	–
COc1cccc(-c2ccc3ncnc(NCc4ccccc4OC)c3c2)c1	inconclusive [inhibitor, single point]	–
COc1ccccc1CNc1ccnc(-c2ccccc2C(F)(F)F)n1	inconclusive [inhibitor, single point]	–
N#Cc1c(C(F)(F)F)cc(-c2ccccc2)nc1SCc1nc(N)nc(N2CCOCC2)n1	inactive	–
Cc1nc(NCc2ccccc2)c2nc(-c3ccccc3)n(CCN(C)C)c2n1	inconclusive [inhibitor, single point]	–
CC(C)C12CN3CC(C(C)C)(CN(C1)C3c1ccc3c(c1)OCO3)C2=O (centres undefined)	inactive	–
C1CCC(C(CC2CCCCN2)C2CCCCC2)CC1 (centres undefined)	inconclusive [inhibitor, single point]	–
Nc1c(S(=O)(=O)c2ccccc2)c2nc3ccccc3nc2n1/N=C/c1cccc(O)c1	inconclusive [inhibitor, full curve, poor fit]	–
COc1ccc2c(c1)OCC1=C2CCC2(C)C(=O)CC=C12 (centres undefined)	inconclusive [inhibitor, single point]	–
C/C(=C\c1ccccc1)CN1CCN(c2ccccc2)CC1	active: 15.8 µM	–
Cc1ccc2[nH]c(=O)c(-c3nc4c(C)cccn4c3NCc3ccco3)cc2c1	inconclusive [inhibitor, partial curve]	–
c1ccc2sc(SN3CCOCC3)nc2c1	active: 2 µM	–
N#Cc1cccc(-c2cc(-n3ccnc3)ncn2)c1	inconclusive [inhibitor, single point]	–
CCOC(=O)C1CCN(C(=O)C2CCN(S(=O)(=O)c3cccc4cccnc34)CC2)CC1	inconclusive [inhibitor, single point]	–
CCn1c(CCNC(=O)c2cccs2)nnc1SCC(=O)c1ccc(OC)cc1	inconclusive [inhibitor, full curve]	–
